{
  "source": "PubChem BioAssay AID485344",
  "about": "(National Center for Advancing Translational Sciences (NCATS), 2010)",
  "note": "Screen size: about 340,000 compounds; about 6,900 (2%) were called active. Cut-off read from the data, not from the text of the source: active = inhibition above about 30%; inactive = below that, where a call was filed. This is a selection; strong and weak results do not stand in their true shares. Where no call is shown, the source filed none.",
  "data": [
    {"biological_target": "D(2) dopamine receptor (Homo sapiens) (UniProt P14416)", "sequence (P14416 whole entry, looked up)": "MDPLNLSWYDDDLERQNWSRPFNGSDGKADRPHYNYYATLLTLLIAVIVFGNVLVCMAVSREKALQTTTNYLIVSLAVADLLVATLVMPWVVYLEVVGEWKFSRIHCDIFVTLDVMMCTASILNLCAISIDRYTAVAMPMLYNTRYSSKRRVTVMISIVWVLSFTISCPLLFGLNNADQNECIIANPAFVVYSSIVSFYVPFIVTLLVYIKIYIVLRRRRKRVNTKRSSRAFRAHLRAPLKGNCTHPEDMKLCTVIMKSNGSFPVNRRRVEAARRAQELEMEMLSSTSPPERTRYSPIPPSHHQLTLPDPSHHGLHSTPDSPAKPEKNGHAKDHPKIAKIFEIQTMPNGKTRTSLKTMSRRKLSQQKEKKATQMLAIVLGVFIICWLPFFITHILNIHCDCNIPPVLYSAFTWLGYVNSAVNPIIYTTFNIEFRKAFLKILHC", "assay": "HTS Assay for Allosteric Antagonists of the Human D2 Dopamine Receptor: Primary Screen for Antagonists; note: 0% is about no effect", "conditions": "HEK293 TREx D2 cells, calcium flux, dopamine EC80; at 10 µM; stronger effect = higher value", "method_in_brief": "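Antagonism is scored as inhibition of an EC80 dopamine-evoked calcium signal in a force-coupled, tetracycline-inducible HEK293 T-REx D2 line, with compound present 180 s before agonist.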", "values": [
      {"compound": "CC(C)c1ccc(NC(=O)CN2C(=O)CN=C(c3ccccc3)c3ccccc32)cc1", "inhibition": "-6.01%"},
      {"compound": "CCOC(=O)C1CCN(Cc2ccc(Cl)nc2)CC1", "inhibition": "active: 46.7%"},
      {"compound": "CSc1ccc(CN2CCN(c3ccccc3C)CC2)cc1", "inhibition": "active: 70.8%"},
      {"compound": "C[C@H]1CC[C@@]2(C)[C@@H](CC[C@@H]3[C@@H]2CC[C@]2(C)[C@@H](O)CC[C@@H]32)C1", "inhibition": "active: 69.1%"},
      {"compound": "NCC(O)c1ccc(O)cc1", "note": "(stereo unspecified)", "inhibition": "active: 32.1%"},
      {"compound": "O=C(Cn1cc(C(=O)c2ccccc2)c2ccccc21)Nc1ccc(Br)cc1", "inhibition": "-1.46%"},
      {"compound": "COc1ccc(-c2nc(CN3C(=O)CN=C(c4ccccc4Cl)c4cc(Cl)ccc43)c(C)o2)cc1OC", "inhibition": "6.53%"},
      {"compound": "CCCc1ccc(OCC(=O)Nc2ccc(Cl)cc2C(=O)c2ccccc2)cc1", "inhibition": "6.26%"},
      {"compound": "C1=C(c2c[nH]c3ccccc23)CCN(Cc2ccccc2)C1", "inhibition": "active: 69.8%"},
      {"compound": "Cc1cccc(CN2C(=O)CN=C(c3ccccc3)c3cc(Cl)ccc32)c1", "inhibition": "-13.5%"},
      {"compound": "CN1CCc2cccc(Cl)c2CC1", "inhibition": "active: 52.6%"},
      {"compound": "COc1c2c(cc3c1OCO3)CCN(C)C2", "inhibition": "active: 74.8%"},
      {"compound": "CCOC(=O)c1ccc(NC(=O)c2cccn(Cc3ccccc3F)c2=O)cc1", "inhibition": "17.9%"},
      {"compound": "CCCCCc1nc2c(c(=O)c3ccccc3n2C)c(=O)n1C1CCCCCC1", "inhibition": "active: 45.8%"},
      {"compound": "N#Cc1ccccc1NC(=O)c1cccn(Cc2ccccc2)c1=O", "inhibition": "-17%"},
      {"compound": "CCC(C(=O)Nc1ccccc1F)N1C(=O)CN=C(c2ccccc2)c2ccccc21", "note": "(stereo unspecified)", "inhibition": "0.732%"},
      {"compound": "O=C(c1ccco1)c1cn(Cc2ccc(Cl)cc2)c2ccccc12", "inhibition": "active: 30.7%"},
      {"compound": "COc1ccc(Cl)cc1NC(=O)c1sc2nc3c(cc2c1N)N1CCC3CC1", "inhibition": "11.7%"},
      {"compound": "Cc1ccc(S(=O)(=O)N(C)C)cc1NC(=O)C(C)[N+]12CCN(CC1)CC2", "note": "(stereo unspecified)", "inhibition": "active: 31.7%"},
      {"compound": "Cc1ccccc1C1=NCC(=S)Nc2ccc(Cl)cc21", "inhibition": "active: 40.7%"},
      {"compound": "O=C(CCc1nc(C2=CCN(Cc3cccc(Cl)c3)CC2)no1)Nc1ccccc1F", "inhibition": "7%"},
      {"compound": "Cc1cccc(NC(=O)Cn2cc(C(=O)c3ccccc3)c3ccccc32)c1", "inhibition": "20.7%"},
      {"compound": "COc1ccc(OCC(=O)N2CCN(Cc3cc(=O)n4nc(-c5ccccc5C)sc4n3)CC2)cc1", "inhibition": "14.5%"},
      {"compound": "CC(=O)NS(=O)(=O)c1ccc(NC(=O)c2cccn(Cc3ccc(Cl)cc3)c2=O)cc1", "inhibition": "19.9%"},
      {"compound": "O=c1c2ccccc2nc(/C=C\\c2ccc(F)cc2)n1-c1ccccc1F", "inhibition": "-2.76%"},
      {"compound": "O=S1(=O)N(Cc2ccccc2)CCCN1Cc1cccc(Cl)c1", "inhibition": "21.5%"},
      {"compound": "O=C(COc1cccc(Cl)c1)N1CCN(CCc2ccncc2)CC1", "inhibition": "3.94%"},
      {"compound": "N#Cc1cc2c(nc1SCC(=O)Nc1ccc(OC(F)(F)F)cc1)C1CCN2CC1", "inhibition": "-13.9%"},
      {"compound": "O=C(COc1ccccc1Cl)N1CCN(CCc2ccncc2)CC1", "inhibition": "9.7%"},
      {"compound": "COc1ccccc1N1CCN(Cc2ccc(F)cc2)CC1", "inhibition": "active: 75.9%"},
      {"compound": "Cc1cccc(CS(=O)(=O)Cc2ccc(C(=O)N3CCC4(CC3)OCCO4)o2)c1", "inhibition": "active: 39.8%"},
      {"compound": "Cc1cccc(-n2c(/C=C/c3cn(C)c4ccccc34)nc3ccccc3c2=O)c1", "inhibition": "-9.56%"},
      {"compound": "CCOC(=O)C1CCCN(c2ccc([N+](=O)[O-])c3nonc23)C1", "note": "(stereo unspecified)", "inhibition": "active: 51.7%"},
      {"compound": "CC(C)(C)NC(=O)C1CC2CCCCC2CN1", "note": "(stereo unspecified)", "inhibition": "active: 64.2%"},
      {"compound": "Cc1ccc(-c2nc(CN3C(=O)CN=C(c4ccccc4)c4cc(Cl)ccc43)c(C)o2)cc1", "inhibition": "2.95%"},
      {"compound": "Cc1cc(NC(=O)c2cccn(Cc3cccc(Cl)c3)c2=O)no1", "inhibition": "-14.7%"},
      {"compound": "O=C(Nc1ccon1)c1cccn(Cc2ccccc2)c1=O", "inhibition": "-14.8%"},
      {"compound": "c1ccc(C2CC2)c(OCC2=NCCN2)c1", "inhibition": "active: 47%"},
      {"compound": "CCC(CO)NC(=O)C1C=C2c3cccc4[nH]cc(c34)CC2N(C)C1", "note": "(stereo unspecified)", "inhibition": "active: 81%"},
      {"compound": "CSc1ccc(CN2CCN(Cc3ccccc3Cl)CC2)cc1", "inhibition": "active: 69.5%"},
      {"compound": "Cc1cc(-n2c(/C=C/c3ccc(Br)s3)nc3ccccc3c2=O)ccc1Br", "inhibition": "28.3%"},
      {"compound": "CCCCc1ccc(NC(=O)c2cccn(Cc3ccc(Cl)cc3)c2=O)cc1", "inhibition": "7.44%"},
      {"compound": "Cc1c(C(c2ccc(Cl)cc2Cl)c2c(O)c3ccccc3oc2=O)c(=O)n(-c2ccccc2)n1C", "note": "(stereo unspecified)", "inhibition": "-0.0282%"},
      {"compound": "O=c1c2ccccc2nc(/C=C\\c2ccccc2F)n1-c1ccc(O)cc1", "inhibition": "-15.7%"},
      {"compound": "Cc1ccccc1CN1C(=O)CN=C(c2ccccc2)c2cc(Cl)ccc21", "inhibition": "-18.5%"},
      {"compound": "COc1ccc(C(=O)Nc2ccc(Cl)cc2C(=O)c2ccccc2)c(OC)c1", "inhibition": "5.22%"},
      {"compound": "Cc1ccc(OCC(=O)N2CCN(CCc3ccncc3)CC2)cc1C", "inhibition": "-26.6%"},
      {"compound": "Clc1ccccc1N1CCN(Cc2ccc3c(c2)OCO3)CC1", "inhibition": "active: 60.2%"},
      {"compound": "Cc1ccc(-n2c(/C=C/c3cc(Br)cs3)nc3ccccc3c2=O)cc1", "inhibition": "-5.32%"},
      {"compound": "OC(CNCCc1c[nH]c2ccccc12)c1ccccc1", "note": "(stereo unspecified)", "inhibition": "active: 54%"},
      {"compound": "Cc1cccc(-n2c(/C=C/c3ccccc3O)nc3ccccc3c2=O)c1", "inhibition": "-1.13%"}
    ]}
  ]
}
